Test results from PubChem BioAssay AID686978 (National Center for Advancing Translational Sciences (NCATS), 2013).
In all, about 420,000 compounds went through this assay and about 64,000 (15%) were called active. The inconclusive results got no clear call from the source; some entries with a clear call stand among them for comparison. Calls come from the whole dose curve; as a rule, active = well fitted inhibition curve with a large enough effect; inconclusive = small, poorly fitted or top-dose-only effect; inactive = flat fitted curve, though single readings scatter. Potencies of inconclusive entries are left out as doubtful fits.

Assay: qHTS for Inhibitors of human tyrosyl-DNA phosphodiesterase 1 (TDP1): qHTS in cells in absence of CPT; note: nearly all actives have a fitted effect of over 55% in size
Conditions: DT40 Tdp1-/- hTDP1 cells, no CPT, ATP luminescence, 48 h; activity change, negative = growth inhibition: at 46.2 µM (top of the series) unless noted
Procedure, shortened: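 A cellular qHTS used chicken DT40 cells lacking endogenous Tdp1 but carrying stably transfected human TDP1. Compounds were applied without camptothecin, and cell growth kinetics were judged by ATP-dependent luminescence after ≥48 hr.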
% is set by controls: 0 for no effect and ±100 for the full control effect; potency is the fitted concentration of half-maximal effect; tags give direction and shape of the fitted curve.

| SMILES | Potency | activity change, negative = growth inhibition |
| --- | --- | --- |
| COc1ccccc1CCNC(=O)CCc1c(C)c2cc3c(C)coc3c(C)c2oc1=O | inconclusive [inhibitor, single point] |  |
| O=C(CN1C(=O)c2cccnc2Oc2ccc(Cl)cc21)Nc1ccc(F)cc1 | inconclusive [inhibitor, single point] |  |
| CN(C)CCN(Cc1ccco1)S(=O)(=O)c1cc2c(cc1Cl)NC(=O)CO2 |  | inactive: -22.5% |
| CCCCCCCCCCCC[n+]1ccc2ccccc2c1 | active: 0.335 µM |  |
| O=C(NCc1cccc(Br)c1)c1cc(-c2ccccc2)nn1CC1CC(c2cccc([N+](=O)[O-])c2)=NO1 (stereo not given) | inconclusive [inhibitor, single point] |  |
| Cc1ccc(S(=O)(=O)/N=C2/NC(=O)/C(=C\c3ccccc3)S2)cc1 | inconclusive [inhibitor, single point] |  |
| CC(=O)N(CCN(C)C)c1nc2cc3c(cc2s1)OCCO3 |  | inactive: -0.485% |
| Cc1cccc(N2CCN(C(=O)C3CCCN(S(=O)(=O)c4c(C)noc4C)C3)CC2)c1C (stereo not given) | active: 23.1 µM |  |
| CC(=O)Nc1c(C)ccc(S(N)(=O)=O)c1C |  | inactive: 12.3% |
| N#Cc1cn(CCOc2ccccc2F)c2ccccc12 | inconclusive [inhibitor, partial curve, poor fit] |  |
| COc1cc(S(=O)(=O)Nc2cccc3cn[nH]c23)c(OC)cc1C | inconclusive [inhibitor, partial curve, poor fit] |  |
| OC1Cc2ccccc2C1Nc1cccc(C(F)(F)F)c1 (stereo not given) | inconclusive [inhibitor, single point] |  |
| O=C(Nc1ccc2ccccc2c1)c1onc2c1CCCC2 | inconclusive [inhibitor, single point] |  |
| Cc1nn2c(NCCCN(C)C)c3c(nc2c1-c1ccccc1)CCCC3 | inconclusive [inhibitor, single point] |  |
| CC(C)CNC(=O)c1nc(-c2ccccc2)n(-c2ccccc2)n1 | inconclusive [inhibitor, single point] |  |
| Nc1nc2c(Cl)ccc(Cl)c2s1 |  | inactive: -13.9% |
| COc1ccccc1CNS(=O)(=O)c1ccc(S(=O)(=O)NC2CC2)cc1 |  | inactive: -18.9% |
| COc1ccccc1CCCNC(=O)C1CCC(=O)N(Cc2ccccc2F)C1 (stereo not given) | inconclusive [inhibitor, single point] |  |
| CC(=O)c1cccc(N2C(=NC(=O)COc3ccccc3)SC3CS(=O)(=O)CC32)c1 (stereo not given) | inconclusive [inhibitor, single point] |  |
| CC1CN(CC(=O)Nc2cc(S(=O)(=O)N3CCCC3)ccc2Cl)CC(C)O1 (stereo not given) | inconclusive [inhibitor, partial curve] |  |
